Reference: US11278595B2, “Peptides comprising non-natural amino acids and methods of making and using the same” (Longevity Biotech, Inc., priority 2013, dated 2022)
pEC50: −log10 of the molar value. Where two headings read alike, the source gives them in different places. Part of at least one peptide drawing is inferred or uncertain, most often the ends. At least one compound was matched to its structure with a doubt left. Numbered stars: 1 amine (or outer) side, 2 acyl side, 3 side chain; on linkers, the order of the positions; unused ones are H or OH. Square brackets hold non-standard residues; d marks the D form. Peptide text beside a SMILES is read from it. ξ: configuration not given here. ξ(4-Aminopyrrolidine-3-CO) = O=C(C1CNCC1N[*:1])[*:2]; β3hT = C[C@@H](O)[C@H](N)CC(=O)O; β3hN = NC(=O)C[C@H](N)CC(=O)O; X3 = O=C(C1CCCC1N[*:1])[*:2]; β3hL = CC(C)C[C@H](N)CC(=O)O; β3hK = NCCCC[C@H](N)CC(=O)O; β3hV = CC(C)[C@H](N)CC(=O)O; Aib = CC(C)(N)C(=O)O; βAla = NCCC(=O)O

Legend:
VIPR2 (vpac2) = biological target: T1, VIPR2 (vpac2) (Homo sapiens, UniProt P41587); assay: cell-based cAMP assay (DiscoveRx HitHunter cAMP XS+, cAMP Hunter cell lines), agonist mode; details: read-out: EC50 vpac2 (Molar)
T1 sequence (P41587 24-438): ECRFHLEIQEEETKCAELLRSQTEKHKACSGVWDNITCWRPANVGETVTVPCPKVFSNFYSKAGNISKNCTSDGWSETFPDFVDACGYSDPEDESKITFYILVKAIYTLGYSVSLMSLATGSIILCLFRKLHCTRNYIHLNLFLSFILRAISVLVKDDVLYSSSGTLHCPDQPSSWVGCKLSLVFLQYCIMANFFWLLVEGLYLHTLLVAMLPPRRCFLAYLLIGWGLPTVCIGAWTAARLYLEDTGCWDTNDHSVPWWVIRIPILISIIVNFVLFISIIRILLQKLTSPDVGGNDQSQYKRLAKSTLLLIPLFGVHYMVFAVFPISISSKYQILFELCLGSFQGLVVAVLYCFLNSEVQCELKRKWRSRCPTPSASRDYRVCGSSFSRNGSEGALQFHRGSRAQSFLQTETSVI

VIPR1 (vpac1) = biological target: T2, VIPR1 (vpac1) (Homo sapiens, UniProt P32241); assay: as above; details: read-out: EC50 vpac1 (Molar)
T2 sequence (P32241 31-457): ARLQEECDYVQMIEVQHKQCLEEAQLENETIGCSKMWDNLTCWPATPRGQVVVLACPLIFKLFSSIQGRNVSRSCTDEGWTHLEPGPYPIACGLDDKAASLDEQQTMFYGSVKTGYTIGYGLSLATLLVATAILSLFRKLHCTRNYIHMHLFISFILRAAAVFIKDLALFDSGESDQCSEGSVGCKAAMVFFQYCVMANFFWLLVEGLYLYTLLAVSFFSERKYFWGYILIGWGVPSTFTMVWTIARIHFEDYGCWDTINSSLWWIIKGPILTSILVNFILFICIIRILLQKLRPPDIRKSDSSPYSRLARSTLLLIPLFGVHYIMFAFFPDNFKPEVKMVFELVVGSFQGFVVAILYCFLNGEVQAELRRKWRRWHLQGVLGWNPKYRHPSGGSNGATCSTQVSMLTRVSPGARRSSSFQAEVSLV

[1] = Table 2, VPAC2 selective analogs
[2] = Table 3, VPAC1 selective analogs

pEC50 (VIPR2 (vpac2); [1]) | pEC50 (VIPR1 (vpac1); [1]) | pEC50 (VIPR2 (vpac2); [2]) | pEC50 (VIPR1 (vpac1); [2]) | SMILES
10.11 | 9.71 |  |  | CC[C@H](C)[C@H](NC(=O)[C@H](CO)NC(=O)C1CCCC1NC(=O)[C@H](CC(C)C)NC(=O)[C@H](Cc1ccc(O)cc1)NC(=O)C1CNCC1NC(=O)[C@H](CCCCN)NC(=O)[C@H](C)NC(=O)[C@H](C)NC(=O)C1CCCC1NC(=O)[C@H](CCC(N)=O)NC(=O)[C@H](CCCCN)NC(=O)[C@H](CCCNC(=N)N)NC(=O)[C@H](CC(C)C)NC(=O)[C@H](CCCNC(=N)N)NC(=O)[C@@H](NC(=O)[C@H](Cc1ccc(O)cc1)NC(=O)[C@H](CC(N)=O)NC(=O)[C@H](CC(=O)O)NC(=O)[C@@H](NC(=O)[C@H](Cc1ccccc1)NC(=O)[C@@H](NC(=O)[C@H](C)NC(=O)[C@H](CC(=O)O)NC(=O)[C@H](CO)NC(=O)[C@H](Cc1c[nH]cn1)NC(C)=O)C(C)C)[C@@H](C)O)[C@@H](C)O)C(=O)N[C@@H](CCCCN)C(=O)N[C@@H](CC(N)=O)CC(=O)N[C@@H](CCCCN)C(=O)N[C@@H](CCCNC(=N)N)C(=O)N[C@@H](Cc1ccc(O)cc1)C(N)=O (stereo partly drawn) [LBT-V221, Ac-HSDAVFTDNYTRLRKQxAAKzYLxSIKnKRY] (Ac-HSDAVFTDNYTRLRKQ[X3]AAK[ξ(4-Aminopyrrolidine-3-CO)]YL[X3]SIK[β3hN]KRY-NH2)
8.46 | < 6.00 |  |  | CC(=O)N[C@@H](Cc1c[nH]cn1)C(=O)NC(C)(C)C(=O)N[C@@H](CC(=O)O)C(=O)N[C@@H](C)C(=O)N[C@H](CC(=O)N[C@@H](Cc1ccccc1)C(=O)N[C@H](C(=O)N[C@@H](CCC(=O)O)C(=O)N[C@@H](CC(N)=O)CC(=O)N[C@@H](Cc1ccc(O)cc1)C(=O)N[C@H](C(=O)N[C@@H](CCCCN)C(=O)N[C@@H](CC(C)C)C(=O)N[C@@H](CCCNC(=N)N)C(=O)N[C@@H](CCCCN)C(=O)N[C@@H](CCC(N)=O)C(=O)N[C@@H](CC(C)C)C(=O)N[C@@H](C)C(=O)N[C@@H](C)C(=O)NC1CNCC1C(=O)N[C@@H](CCCCN)C(=O)N[C@@H](Cc1ccc(O)cc1)C(=O)NC1CCCC1C(=O)N[C@@H](CC(N)=O)C(=O)N[C@@H](CC(=O)O)C(=O)N[C@@H](CC(C)C)C(=O)N[C@@H](CCCCN)CC(=O)N[C@@H](CCCCN)C(=O)NCC(=O)NCCC(=O)N[C@H](C(N)=O)[C@@H](C)O)[C@@H](C)O)[C@@H](C)O)C(C)C (stereo partly drawn) [LBT-V206, Ac-HBDAvFTEnYTKLRKQLAAzKYxNDLkKGgT] (Ac-H[Aib]DA[β3hV]FTE[β3hN]YTKLRKQLAA[ξ(4-Aminopyrrolidine-3-CO)]KY[X3]NDL[β3hK]KG[βAla]T-NH2)
 |  | < 6.00 | 7.05 | CC[C@H](C)[C@H](NC(=O)[C@H](C)NC(=O)[C@H](CC(N)=O)NC(=O)C[C@H](CC(C)C)NC(=O)[C@H](Cc1ccc(O)cc1)NC(=O)[C@H](CCCCN)NC(=O)[C@H](CCCCN)NC(=O)C[C@@H](NC(=O)[C@H](C)NC(=O)[C@H](CC(C)C)NC(=O)[C@H](CCC(N)=O)NC(=O)C[C@H](CCCCN)NC(=O)[C@H](CCCNC(=N)N)NC(=O)[C@H](CC(C)C)NC(=O)[C@H](CCCNC(=N)N)NC(=O)C[C@@H](NC(=O)[C@H](Cc1ccc(O)cc1)NC(=O)[C@H](CC(N)=O)NC(=O)[C@H](CC(=O)O)NC(=O)[C@@H](NC(=O)[C@H](Cc1ccccc1)NC(=O)C1CCCC1NC(=O)[C@H](C)NC(=O)[C@H](CC(=O)O)NC(=O)[C@@H](Cc1ccccc1)NC(=O)[C@@H](N)Cc1c[nH]cn1)[C@@H](C)O)[C@@H](C)O)C(C)C)C(=O)N[C@H](CC(=O)N[C@@H](CC(N)=O)C(N)=O)CC(C)C (stereo partly drawn) [LBT-V127, HfDAxFTDNYtRLRkQLAvKKYlNAIlN] (H-H[dF]DA[X3]FTDNY[β3hT]RLR[β3hK]QLA[β3hV]KKY[β3hL]NAI[β3hL]N-NH2)
9.09 | < 6.00 |  |  | CC(=O)N[C@@H](Cc1c[nH]cn1)C(=O)NC(C)(C)C(=O)N[C@@H](CC(=O)O)C(=O)N[C@@H](C)C(=O)N[C@H](CC(=O)N[C@@H](Cc1ccccc1)C(=O)N[C@H](C(=O)N[C@@H](CCC(=O)O)C(=O)N[C@@H](CC(N)=O)C(=O)N[C@@H](Cc1ccc(O)cc1)C(=O)N[C@H](C(=O)N[C@@H](CCCCN)C(=O)N[C@@H](CC(C)C)C(=O)N[C@@H](CCCNC(=N)N)C(=O)N[C@@H](CCCCN)C(=O)N[C@@H](CCC(N)=O)C(=O)N[C@@H](CC(C)C)C(=O)N[C@@H](C)C(=O)N[C@@H](C)C(=O)NC1CNCC1C(=O)N[C@@H](CCCCN)C(=O)N[C@@H](Cc1ccc(O)cc1)C(=O)NC1CCCC1C(=O)N[C@@H](CC(N)=O)C(=O)N[C@@H](CC(=O)O)C(=O)N[C@@H](CC(C)C)C(=O)N[C@@H](CCCCN)CC(=O)N[C@@H](CCCCN)C(=O)NCC(=O)NCCC(=O)N[C@H](C(N)=O)[C@@H](C)O)[C@@H](C)O)[C@@H](C)O)C(C)C (stereo partly drawn) [LBT-V205, Ac-HBDAvFTENYTKLRKQLAAzKYxNDLkKGgT] (Ac-H[Aib]DA[β3hV]FTENYTKLRKQLAA[ξ(4-Aminopyrrolidine-3-CO)]KY[X3]NDL[β3hK]KG[βAla]T-NH2)
9.74 | 6.66 |  |  | CC(=O)N[C@@H](Cc1c[nH]cn1)C(=O)N[C@@H](CO)C(=O)N[C@@H](CC(=O)O)C(=O)N[C@@H](C)C(=O)N[C@H](C(=O)N[C@@H](Cc1ccccc1)C(=O)N[C@H](C(=O)N[C@@H](CCC(=O)O)C(=O)N[C@@H](CC(N)=O)C(=O)N[C@@H](Cc1ccc(O)cc1)C(=O)N[C@H](C(=O)N[C@@H](CCCCN)C(=O)N[C@@H](CC(C)C)C(=O)N[C@@H](CCCNC(=N)N)C(=O)N[C@@H](CCCCN)C(=O)N[C@@H](CCC(N)=O)C(=O)NC1CCCC1C(=O)N[C@@H](C)C(=O)N[C@@H](C)C(=O)NC1CNCC1C(=O)N[C@@H](CCCCN)C(=O)N[C@@H](Cc1ccc(O)cc1)C(=O)N[C@@H](CC(C)C)C(=O)NC1CCCC1C(=O)N[C@@H](CC(=O)O)C(=O)N[C@@H](CC(C)C)C(=O)N[C@@H](CCCCN)CC(=O)N[C@@H](CCCCN)C(=O)NCC(=O)NCC(=O)N[C@H](C(N)=O)[C@@H](C)O)[C@@H](C)O)[C@@H](C)O)C(C)C (stereo partly drawn) [LBT-V203, Ac-HSDAVFTENYTKLRKQxAAzKYLxDLkKGGT] (Ac-HSDAVFTENYTKLRKQ[X3]AA[ξ(4-Aminopyrrolidine-3-CO)]KYL[X3]DL[β3hK]KGGT-NH2)
8.90 | < 6.00 |  |  | CC(=O)N[C@@H](Cc1c[nH]cn1)C(=O)NC1CCCC1C(=O)N[C@@H](CC(=O)O)C(=O)N[C@@H](C)C(=O)N[C@H](CC(=O)N[C@@H](Cc1ccccc1)C(=O)N[C@H](C(=O)N[C@@H](CCC(=O)O)C(=O)N[C@@H](CC(N)=O)C(=O)N[C@@H](Cc1ccc(O)cc1)C(=O)N[C@H](C(=O)N[C@@H](CCCCN)C(=O)N[C@@H](CC(C)C)C(=O)N[C@@H](CCCNC(=N)N)C(=O)N[C@@H](CCCCN)C(=O)N[C@@H](CCC(N)=O)C(=O)N[C@H](CC(=O)N[C@@H](C)C(=O)N[C@@H](C)C(=O)NC1CNCC1C(=O)N[C@@H](CCCCN)C(=O)N[C@@H](Cc1ccc(O)cc1)C(=O)NC1CCCC1C(=O)N[C@@H](CC(N)=O)C(=O)N[C@@H](CC(=O)O)C(=O)N[C@@H](CC(C)C)C(=O)N[C@@H](CCCCN)CC(=O)N[C@@H](CCCCN)C(=O)NCC(=O)NCCC(=O)N[C@H](C(N)=O)[C@@H](C)O)CC(C)C)[C@@H](C)O)[C@@H](C)O)C(C)C (stereo partly drawn) [LBT-V211, Ac-HxDAvFTENYTKLRKQlAAzKYxNDLkKGgT] (Ac-H[X3]DA[β3hV]FTENYTKLRKQ[β3hL]AA[ξ(4-Aminopyrrolidine-3-CO)]KY[X3]NDL[β3hK]KG[βAla]T-NH2)
 |  | 6.46 | 3.21 | CC[C@H](C)[C@H](NC(=O)[C@H](C)NC(=O)[C@H](CC(N)=O)NC(=O)C[C@H](CC(C)C)NC(=O)[C@H](Cc1ccc(O)cc1)NC(=O)[C@H](CCCCN)NC(=O)[C@H](CCCCN)NC(=O)C[C@@H](NC(=O)[C@H](C)NC(=O)[C@H](CC(C)C)NC(=O)[C@H](CCC(N)=O)NC(=O)C[C@H](CCCCN)NC(=O)[C@H](CCCNC(=N)N)NC(=O)[C@H](CC(C)C)NC(=O)[C@H](CCCNC(=N)N)NC(=O)C[C@@H](NC(=O)[C@H](Cc1ccc(O)cc1)NC(=O)[C@H](CC(N)=O)NC(=O)[C@H](CC(=O)O)NC(=O)[C@@H](NC(=O)[C@H](Cc1ccccc1)NC(=O)[C@@H](NC(=O)[C@H](C)NC(=O)[C@H](CC(=O)O)NC(=O)[C@@H](Cc1ccccc1)NC(=O)[C@@H](N)Cc1c[nH]cn1)C(C)C)[C@@H](C)O)[C@@H](C)O)C(C)C)C(=O)N[C@H](CC(=O)N[C@@H](CC(N)=O)C(N)=O)CC(C)C [LBT-V126, HfDAVFTDNYtRLRkQLAvKKYlNAIlN] (H-H[dF]DAVFTDNY[β3hT]RLR[β3hK]QLA[β3hV]KKY[β3hL]NAI[β3hL]N-NH2; N-terminus assumed)
